# Source: the RNAGym collection of RNA variant scans (doi:10.1073/pnas.2313332121)
# Variants at the background level are over-represented here.
# B1: TPR 5TU (parent)
# chain: GGAUCUUCUCGAUCUAACAAAAAAGACAAAUCUGCCACAAAGCUUGAGAGCAUCUUCGGAUGCAGAGGCGGCAGCCUUCGGUGGCGCGAUAGCGCCAACGUUCUCAACUAUGACACGCAAAACGCGUGCUCCGUUGAAUGGAGUUUAUCAUG
# Variants of: B1
# Assay: polymerase ribozyme fitness, log enrichment relative to wild type (log ratio); higher = more active; in vitro selection for triplet polymerase activity
# Procedure, shortened: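 To select mutant libraries of each subunit of a heterodimeric triplet polymerase ribozyme, built by PCR and transcribed, each was annealed with a biotinylated primer, partner subunit and triplets, then incubated frozen at −7 °C. Extended constructs were gel-excised, captured on streptavidin beads and amplified by RT-PCR, in one round carried out in triplicate. Illumina sequencing of input and output libraries kept genotypes with ≥10 input reads and ≥1 read per output. Fitness is the base-2 logarithm of genotype enrichment relative to wild-type enrichment, from inverse-variance-weighted replicate averages.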
row,Variant,polymerase ribozyme fitness (log ratio)
1,GGAUCCUCUCGAUCUAACAAAAAAGACAAAUCUGCCACAAAGCUUGAGAGCAUCUUCGGAUGCAGAGGCGGCAGCCUUCGGUGGCGCGAUAGCGCGAACGUUCUUAACUAUGACACGCAAAACGCGUGCUCCGUUGAAUGGAGUUUAUCAUG [U6C C96G C105U],-0.764
2,GGAUCCUCUCGAUCUAACAAAAAAGACAAAUCUGCCACAAAGCUUGAGAGCAUCUUCGGAUGCAGAGGCGGCAGCCUUCGGUGGCGCGAUAGCGCCAACGUUGUCAACUAUGACACGCAAAACGCGUGCUCCGUGGAAUGGAGUUUAUCAUG [U6C C103G U135G],≤ -4.2
3,GGAUCCUCUCCAUCUAACAACAAAGACAAAUCUGCAACAAAGCUUGAGAACAUCUUCGGAUGCAGAGGCGGCAGCCUUCGGUGGCGCUAUCGCGCCAACGUUCUCAACUAUGACACGCAAAACGCGUGCUCCGUUUAAUGGAGUUUAUCAUG [U6C G11C A21C C36A G50A G88U A91C G136U],≤ -4.2
4,GGAUCCUCUCGAUCUAACAAAAAAGACAAAUCUGCCACAAAUCUUGAGAGCAUCUUCGGAUGCAGAGGCGGCAGCCGUCGGUGGCGUGAUAGCGCCAACGUUCUCAACUAUGACACGCAAAUCGCGUGCUCCGUUGAAUGGAGUUUAUCAUG [U6C G42U U77G C87U A122U],≤ -4.2
5,GGAUCCUCUCGAUCUAACAAAAAAGACAAAUCUGCCACAAAGCUUUAGAGCAUCUUCGCAUGCAGAGGCGGCAGCCUUCGGUGGCGCGAUACCGCCAACGUUCACAACUAUGACACGCAAAACGCGUGCUCCGUUGAAUGGAGUGUAUCAUG [U6C G46U G59C G92C U104A U145G],≤ -4.2
6,GGAUCCUCUCGAUCUAACAAAAAAGACAAAUCUGCCACAAAGCUUGAGAACAUCUUCGGAUGCAGAGGCGGCUGCCUUCGGUGGCGCGAUAGGGCCAACUUUCUCAGCCAUGACACGCAAAACGCGUGCUCCGUUGAAUGGCGUUUAUCUUG [U6C G50A A73U C93G G100U A107G U109C A142C A150U],≤ -4.2
7,GGAUCCUCUCGAUCUAACAAAAAAGACAAAUCUGCCACAAAGCUUGAGAGCAUCUUCAGAAGCAGAGGCGUCAGCCUUCGGUGGCGCGAUAGCGCCAACGUUCUCAACUAUGACACGCAAAACGCGUGCUCCCUUGAAUGGAGUUUAUCAUG [U6C G58A U61A G71U G133C],≤ -4.2
8,GGAUCCUCUCGAUCUAACAAAAAAGACAAAUCUGCCACAAAGCUUGAGAGCAUCUUCCGAUGCAGAGGCGGCAGCCUUCGGUGCCGCGAUAGCGCCAACGUUCUCAACUAUGACACGCAAAACGCGUGCUCCGGUGAAUGGAGUUUAUCAUG [U6C G58C G84C U134G],≤ -4.2
9,GGAUCCUCUCGAUCUAACAAAAAAGACAAAUCUGCCACAAAGCUUGAGAGCAUCUUCGUAUGCAGAGGCGGCAGCCUUCGGUGGAGCGAUAGCGCCAAGGUUCUCAACUAUGACACGGAAAACGCGUGCUCCGUUGAAUGGAGUUUAUCAUG [U6C G59U C85A C99G C118G],≤ -4.2
10,GGAUCCUCUCGAUCUAACAAAAAAGACAAAUCUGCCACAAAGCUUGAGAGCAUCUUCGGAUGCAGAGGCAGCAGCGUUCGGUGGCGAAAUAGCGCCAACGUUCUCAACUAUGACAAGCAAAACGCGUGCUCCGUUGAAUGGAGUUUAUCAUG [U6C G70A C76G C87A G88A C116A],≤ -4.2
11,GGAUCCUCUCGAUCUAACAAAAAAGACAAAUCUGCCACAAAGCUUGAGAGCAUCUUCGGAUGCAGAGGCGGCAGCCUUCGGUAGCGCGAUAGCGCCAACGUUCUCAACUAUGAUACGCAAAACGCGUGCUCCGUUGAAUGGAGUUUAUCAUG [U6C G83A C114U],-2.57
12,GGAUCCUCUCGAUCUAACAAAAAAGACAAAUCUGCCACAAAGCUUGAGAGCAUCUUCGGAUGCAGAGGCGGCAGCCUUCGGUGGCCCGAUAGCGCCAACGUUCGCAACUAUGACACGCAAAACGCGUGCUCCGUUGAAUGGAGUUUAUCAUG [U6C G86C U104G],≤ -4.2
13,GGAUCCUCUCGAUCUAACAAAAAAGACAAAUCUGCCACAAAGCUUGAGAGCAUCUUCGGAUGCAGAGGCGGCAGCCUUCGGUGGCGCGAUAGCGCCAACGUUCUCAACUAUGACACCCAAAACGCGUGCUCCGUUGAAUGGAGUUUAUCAUG [U6C G117C],-0.247
14,GGAUCCUCUCGAUCUAACAAAAAAGACAAAUCUGCCACAAAGCUUGAGAGCAUCUUCGGAUGCAGAGGCGGCAGCCUUCGGUGGCGCGAUAGCGCCAACGUUCUCAACUAUGACACGCAAAACCCGUGAUCCGUUGAAUGGAGUUUAUCAUG [U6C G124C C129A],-4.16
15,GGAUCCGCUCGAUCUAACAAAAAAGACAAAUCUGCCACAAAGCUUGAGAGCAUCUUCGUAUGCAGAGCCGGCAGCCUUCGGCGGCGCGAUAGCGCCAACGUUCUCAACUAUGACACGCAAAACGCGUGCUCCGUUUAAUGGAGUUUAUCAUG [U6C U7G G59U G68C U82C G136U],≤ -4.2
16,GGAUCCUCCCGAUCUAACAAAAAAGACAAAUCUGCUACAAAGCUUGACAGGAUCUUCGGAUGCAGAGGCGGCAGCCUUCGGUGGCGCGAUAGCGCCAACGUUCUCAACUAUGACACGCAAAACGCGUGCUCCGUUGAAUGGAGUUUAUCAUG [U6C U9C C36U G48C C51G],≤ -4.2
17,GGAUCCUCUCGAACUAACAAAAAACACAAAUCUGCCACAAAGCUUGAGCGCAUCCUCAGAUGCAGAGGCGGCAGCCUUCGGUGGCGCGAUAGCGUCAACGUUCUCAACUAUGACACGCAAAACGCGUGCUCCGUUGAAUGGAGUUUAUCAUG [U6C U13A G25C A49C U55C G58A C95U],≤ -4.2
18,GGAUCCUCUCGAGCUAACAAAAAAGACAAAUCUGCCACAAAUCUUAAGAGCAUCUUCAAAAGCAGAGGCGGCAGCCUUCGGGAGCGCGAUAGCGCCAACGUUCUCAACUAUGACAAGCAAAACGCGUGCUCCCUUGAAUGGAGUUUAUCAUG [U6C U13G G42U G46A G58A G59A U61A U82G G83A C116A G133C],≤ -4.2
19,GGAUCCUCUCGAUCUAACAAAAAAGACAAACCUGCCACAAAGCUUGAGAGCUUCUUCAGAUGCAGAGGCGGCAGCCUUCGGUGGCGCGAUAGCGGCAACGUUCUCAACUAUGACACGCAAAACGCGUGCUCCGUUGAAUGGAGUAUAUCAUG [U6C U31C A52U G58A C95G U145A],-2.9
